Measured values taken from PubChem BioAssay AID1347434 (National Center for Advancing Translational Sciences (NCATS), 2020).
In all, about 1,200 compounds went through this assay and about 30 (2%) were called active. Another 23% or so got no clear call; they are omitted. Calls follow the shape of the dose curve; as a rule, active = well fitted inhibition curve with a large enough effect; inconclusive = small, poorly fitted or top-dose-only effect; inactive = flat fitted curve, though single readings scatter. This is one part of the list.

biological target: Single-stranded DNA cytosine deaminase (Homo sapiens) (UniProt Q9GZX7); experiment: Confirmatory qHTS assay for inhibitors of Activation Induced Cytidine Deaminase (AID): AID signals; details: recombinant AID, FRET deamination/UDG coupled fluorescence, 4 h; series mostly up to 115 µM; activity, negative = inhibition: at the top concentration
Procedure, shortened: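 Read 1 (AID) was measured at 540 ex/590 em after a 30 min NaOH step. The reaction was AID (1 uM, 4/3x stock) with UDG, compound at final 7.32 nM - 114 uM for 10 min, then DJC20/DJC23 substrate for 4 hr at room temperature. A UDG read at 560/665 serves as counterscreen.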
% is scaled to controls: 0 for no effect and ±100 for the full control effect; potency is read from the fitted curve at half-maximal effect.

Chain of UniProt Q9GZX7 (Q9GZX7 whole entry, looked up): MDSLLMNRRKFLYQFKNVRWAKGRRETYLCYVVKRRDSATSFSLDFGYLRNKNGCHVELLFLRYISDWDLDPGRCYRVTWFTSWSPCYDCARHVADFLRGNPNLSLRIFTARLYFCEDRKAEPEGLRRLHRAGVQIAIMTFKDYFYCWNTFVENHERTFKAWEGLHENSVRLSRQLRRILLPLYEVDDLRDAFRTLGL

SMILES | activity, negative = inhibition | Potency
O=C(NCCn1cc(SCc2ccc(C(F)(F)F)cc2)c2ccccc21)c1cccs1 | inactive: 7.38% | –
Cc1cc2ccccc2n1-c1ccc(C(=O)N2CCCCC2)s1 | inactive: -4.34% | –
Cc1ccccc1CSc1nc2nc(C)c(Cc3ccccc3)c(C)n2n1 | inactive: -17.8% | –
CCCCN(CCCC)CC(O)Cn1cc(/C=C/C(=O)c2ccccc2)c2ccccc21 (stereo not given) | inactive: -9.29% | –
CCCCOc1ccc(-c2nn(-c3ccccc3)cc2C2NC(=O)NC(C)=C2C(=O)OCC)cc1 (stereo not given) | inactive: -23.8% | –
Cc1cccc(N2C(=O)N(CC(=O)C(C)(C)C)c3ccccc3S2(=O)=O)c1C | inactive: -1.03% | –
CCOc1ccc(C(=O)/C=C/c2cn(CC(O)CN3CCCCCC3)c3ccccc23)cc1 (stereo not given) | inactive: -5.22% | –
Cc1cc2nnc(SCc3ccc(F)cc3)n2c2ccccc12 | inactive: -13.7% | –
CCOc1ccc(C(=O)c2cn(CC(=O)Nc3ccc(OC)cc3)c3cc4c(cc3c2=O)OCCO4)cc1 | inactive: -22.8% | –
COc1cccc(CNC(=O)Cn2c(=O)ccc3cc(S(=O)(=O)N4CCC(C)CC4)ccc32)c1 | inactive: -19.1% | –
CCOc1ccc(CCNc2ncnc3onc(-c4ccc(Cl)cc4)c23)cc1OCC | inactive: -10% | –
O=C(CCS(=O)(=O)c1nc(-c2cccs2)cc(C(F)(F)F)n1)Nc1ccc(OC(F)(F)F)cc1 | inactive: 3.71% | –
CCOC(=O)C1CCN(c2nc3c(S(=O)(=O)c4ccccc4)nnn3c3ccsc23)CC1 | inactive: -6.88% | –
Cc1ccc2onc(CC(=O)N3CCN(c4cc(Cl)ccc4C)CC3)c2c1 | inactive: -15.5% | –
CCc1ccc(-n2c(=O)c3c4c(sc3n(CC(=O)N3CCCCC3CC)c2=O)CCC4)cc1 (stereo not given) | inactive: -15.2% | –
Cc1nc2nc(SCC(=O)NC3CCCCC3)nn2c(C)c1Cc1ccccc1Cl | inactive: -9.71% | –
CCc1ccccc1-n1c(C)nc2cc(C(=O)NCCc3ccc(Cl)cc3)ccc21 | inactive: -11.6% | –
CN(C)c1ccc(CN(Cc2ccco2)C(=O)c2ccc(C(C)(C)C)cc2)cc1 | inactive: -6.01% | –
CC(C)(C)OC(=O)N1CCC(c2c(C(=O)NCc3cccc(Cl)c3)cnn2-c2ccc(F)cc2)CC1 | inactive: -19.3% | –
COc1cccc(Cn2cc(C(=O)c3ccccc3)c(=O)c3cc4c(cc32)OCO4)c1 | inactive: -28.1% | –
COc1ccc(OC)c(NC(=O)Cn2c(=O)cc(-c3ccccc3)c3c(C)nn(C)c32)c1 | inactive: -20% | –
Cc1cccc(N2CCN(C(=O)CS(=O)(=O)Cc3nc(-c4ccccc4C)oc3C)CC2C)c1 (stereo not given) | inactive: 2.05% | –
Cc1cc(C)cc(OCC(=O)NCC(c2ccc(Cl)cc2)N2CCCCC2)c1 (stereo not given) | inactive: -3.85% | –

SMILES | activity, negative = inhibition | Potency
CCc1ccc(CN(Cc2ccco2)C(=O)c2ccccc2Cl)cc1 | inactive: -14.8% | –
Cc1cccc(Cn2c(SCc3ccc(C(=O)N4CCCCCC4)cc3)nc3ccncc32)c1 | inactive: -11% | –
O=C(CSc1nnc(-c2ccccc2Cl)o1)N1CCCc2ccccc21 | inactive: -10.1% | –
CCOc1ccc2nc(Cl)c(C3CC(c4ccc(C)cc4)=NN3C(=O)CCC(=O)O)cc2c1 (stereo not given) | inactive: 3.08% | –
Cc1ccc(Cl)cc1N1CCN(C(=O)c2ccc3c(Cl)c4c(nc3c2)CCCC4)CC1 | inactive: 15.5% | –
COc1cccc(-c2nc(CS(=O)(=O)CC(=O)N3CCN(c4ccccc4)CC3)c(C)o2)c1 | inactive: 0.697% | –
COc1ccc(-n2nc3c(N4CCC(C(=O)N5CCC(C)CC5)CC4)nnc(C)c3c2C)cc1 | inactive: 2.89% | –
CCc1ccc(OCC(=O)N(Cc2ccc(C(C)C)cc2)C2CCS(=O)(=O)C2)cc1 (stereo not given) | inactive: -7.21% | –
CCc1nn(CCCC(=O)NCc2cc(Br)ccc2OC)c(=O)c2cc3occc3n12 | inactive: -12.5% | –
CN(C(=O)c1ccc2c(c1)N(Cc1ccc(F)cc1)C(=O)c1ccccc1S2(=O)=O)C1CCCCC1 | inactive: -5.42% | –
Cc1cccc(N2CCN(C(=O)c3cccn3-c3nnc(N4CCCCC4)s3)CC2)c1C | inactive: -5.86% | –
Cc1ccc(Cl)cc1N1CCN(C(=O)c2nn(C)c3c2CS(=O)(=O)c2ccccc2-3)CC1 | inactive: -15.1% | –
CCOc1ccc(S(=O)(=O)c2c(C(=O)c3ccc(C)c(C)c3)cnc3ccccc23)cc1 | inactive: -4.73% | –
CCCCCSc1nc2sc3c(c2c(=O)n1-c1ccccc1)CCN(C(C)=O)C3 | inactive: -26.7% | –
Cc1ccc(Cn2c(SCc3ccc(C(=O)N4CCCCCC4)cc3)nc3ccncc32)cc1 | inactive: -6.5% | –
COc1ccc(S(=O)(=O)N(CC(=O)Nc2cccc(C(F)(F)F)c2)c2ccc(C)cc2)cc1 | inactive: -5.83% | –
CCOC(=O)C1=C(CN2CCN(c3ccccc3F)CC2)NC(=O)NC1c1ccc(Cl)cc1 (stereo not given) | inactive: -9.34% | –
O=C(Nc1cccc(Cl)c1)c1c(NC(=O)C(F)(F)F)sc2c1CCCC2 | inactive: -14.6% | –
CCc1ccc2oc(C(=O)NCC(c3ccc(Cl)cc3)N3CCOCC3)c(C)c2c1 (stereo not given) | inactive: -9.17% | –
Cc1oc(-c2ccccc2Cl)nc1CS(=O)CC(=O)N1CCN(c2cccc(C(F)(F)F)c2)CC1 (stereo not given) | inactive: -3.5% | –
Cc1cccc(N2CCN(C(=O)c3sc4nc5n(c(=O)c4c3C)CCC5)CC2C)c1 (stereo not given) | inactive: -8.89% | –
CCCc1cnc2c(c1SCc1cccc(C)c1)c(=O)n(C)c(=O)n2C | inactive: -13.2% | –
Cc1ccc(-n2ncc(C(=O)NCc3ccc4c(c3)OCO4)c2C2CCN(C(=O)OC(C)(C)C)CC2)c(C)c1 | inactive: -16.4% | –

SMILES | activity, negative = inhibition | Potency
CN1CCN(C(=O)c2ccc3c(c2)N(Cc2ccc(C(F)(F)F)cc2)C(=O)c2ccccc2S3)CC1 | inactive: -7.94% | –
Cc1cc(C)cc(N2C(=O)CSC23C(=O)N(Cc2c(F)cccc2Cl)c2ccccc23)c1 (stereo not given) | inactive: -10.2% | –
Cc1ccc(C)c(CN2C(=O)c3ccccc3S(=O)c3ccc(C(=O)N4CCCCC4)cc32)c1 (stereo not given) | inactive: -1.88% | –
CCOC(=O)c1c(C)n(-c2ccccc2)c2ccc(OC(=O)c3ccccc3NC(=O)C(C)(C)C)cc12 | inactive: 11.3% | –
Cc1ccc(N(Cc2cccs2)C(=O)COc2cccc(C)c2)cc1 | inactive: -20.2% | –
CCn1cc2nc(SCc3ccc(F)cc3)n(CCc3ccccc3)c(=O)c2n1 | inactive: -8.36% | –
COCCCNC(=O)c1oc2c(c1C)-c1nn(Cc3ccccc3Cl)cc1CC2 | inactive: 16% | –
CCC1=Nc2cc(C(=O)NCCCOC)ccc2Sc2ccc(Br)cc21 | inactive: -5.81% | –
CCCc1nc2ccccc2n2c(-c3ccccc3)c3c(=O)n(C)c(=O)n(C)c3c12 | inactive: -19.8% | –
Cc1ccc2c(c1)C(c1ccc(F)cc1)N(C(=O)c1ccc(OC(C)C)cc1)CC(=O)N2 (stereo not given) | inactive: -0.686% | –
CCCN(C(=O)CCc1nc(-c2ccc(OC)cc2)no1)c1ccccc1F | inactive: -13.3% | –
COc1cccc(-n2c(-c3cccc(F)c3)nc3c(cnn3-c3ccc(C)cc3)c2=O)c1 | inactive: -15.5% | –
CC(C)(C)OC(=O)N1CCC(c2c(C(=O)NCCc3ccccc3)cnn2-c2ccc(F)cc2)CC1 | inactive: -2.62% | –
O=C(NCCc1nc2ccccc2n1Cc1ccc(Cl)cc1Cl)c1ccco1 | inactive: -6.08% | –
CCCCC(CC)Cn1c(Oc2ccccc2)nc2c1c(=O)n(C)c(=O)n2C (stereo not given) | inactive: -12% | –
COc1cc(NC(=O)CSc2nc3nc(C)c(Cc4ccccc4)c(C)n3n2)cc(OC)c1OC | inactive: -14.7% | –
Cc1ccc(Cl)cc1NC(=O)Nc1cn(CC(C)C)c(=O)c2ccccc12 | inactive: 46.2% | –
Cc1ccccc1C(=O)Nc1ccc(C(=O)OCc2cc(=O)n3c4c(sc3n2)CCCC4)cc1 | inactive: -14.7% | –
Cc1ccc(Cl)cc1N(C)C(=O)c1cc2ccc3cccnc3c2[nH]1 | inactive: -3.21% | –
Cc1ccc(C)c(N2CCN(C(=O)c3cc4c(=O)n(Cc5cccs5)ccc4nc3C)CC2)c1 | inactive: -7.29% | –
Cc1ccc(CSC2=Nc3ccccc3C3=NC(CCC(=O)NCc4cccs4)C(=O)N23)cc1 (stereo not given) | inactive: -6.92% | –
CCn1cc(S(=O)(=O)c2ccccc2)c(=O)c2cc(F)c(N3CCCCCC3)cc21 | inactive: -28.4% | –
Cc1ccc2c(c1)C(c1ccccc1)N(C(=O)COc1ccc(Cl)cc1Cl)CC(=O)N2 (stereo not given) | inactive: -12.4% | –

SMILES | activity, negative = inhibition | Potency
CN(Cc1ccco1)C(=O)c1ccc2c(c1)N(Cc1ccccc1F)C(=O)c1ccccc1S2 | inactive: -11.4% | –
CCC1CN(C(=O)N2CCC(C(=O)N3CCN(c4cccc(C)c4C)CC3)CC2)c2ccccc2O1 (stereo not given) | inactive: -12.2% | –
COc1ccc(N2CCN(C(=O)c3cc4c(-c5ccccc5F)nn(C)c4s3)CC2)cc1 | inactive: 1.58% | –
CCOc1ccc(CCNC(=O)c2ccc3c(c2)c(C)c(C)n3C)cc1 | inactive: 10.6% | –
Cc1[nH]n2c(=O)cc(-c3ccccc3Cl)nc2c1-c1ccccc1 | inactive: -8.05% | –
CC1CCCCN1C(=O)c1ccc2c(c1)N(Cc1ccc(Cl)cc1)C(=O)c1ccccc1S2=O (stereo not given) | inactive: -21% | –
COc1cc2c(=O)c(C(=O)c3ccc(C)c(C)c3)cn(Cc3ccc(F)cc3)c2cc1OC | inactive: -26% | –
CCc1nn2c(-c3ccccc3OC)ccnc2c1-c1ccccc1 | inactive: -12.1% | –
Cc1ccc(C(=O)c2cn(Cc3ccccc3)c3nc(C)ccc3c2=O)cc1 | inactive: -21.7% | –
CCc1cccc(-n2c(C)nc3c(cnn3-c3ccc(Cl)cc3)c2=O)c1 | inactive: -9.58% | –
Cc1ccc(-c2cc3ncc(C(=O)c4cc([N+](=O)[O-])ccc4O)cn3n2)cc1 | inactive: -25% | –
CCCN(CCC)C(=O)Cn1c(=O)n(Cc2ccc(C(=O)NCCc3ccc(OC)c(OC)c3)cc2)c(=O)c2ccccc21 | inactive: -3.63% | –
Cc1cc(C)c(/C=C/c2onc(C)c2S(=O)(=O)N2CCC(C(=O)N3CCN(c4ccccc4)CC3)CC2)c(C)c1 | inactive: -2.02% | –
O=C(CCCCn1c(=O)[nH]c2ccsc2c1=O)N1CCN(c2cccc(Cl)c2)CC1 | inactive: -21.5% | –
C[C@]12C=CC(=O)C=C1CC[C@@H]1C2=CC[C@]2(C)[C@@H](C(=O)CN3CCN(c4cc(N5CCCC5)nc(N5CCCC5)n4)CC3)CC[C@@H]12 | inactive: 23% | –
CCn1cc(C(=O)NCCc2ccc(C)cc2)c(=O)c2cc(S(=O)(=O)N3CCC(C)CC3)ccc21 | inactive: -14% | –
Cc1ccccc1OCCCCn1c(CCNC(=O)C(C)(C)C)nc2ccccc21 | inactive: -12.3% | –
COc1ccc(C)cc1NC(=O)c1ccc2c(SCC(=O)O)c3c(nc2c1)CCCC3 | inactive: 1.98% | –
CCN(CC)CC(C)CNC(=O)c1cc(-c2ccc(Br)s2)nc2ccccc12 (stereo not given) | inactive: -10.7% | –
COc1cccc(CNC(=O)c2oc3c(c2C)-c2nn(Cc4cccc(Cl)c4)cc2CC3)c1OC | inactive: 14.5% | –
Cc1ccc(C(=O)Nc2ccc(S(=O)(=O)O)c3cc(S(=O)(=O)O)cc(S(=O)(=O)O)c23)cc1NC(=O)c1cccc(NC(=O)Nc2cccc(C(=O)Nc3cc(C(=O)Nc4ccc(S(=O)(=O)O)c5cc(S(=O)(=O)O)cc(S(=O)(=O)O)c45)ccc3C)c2)c1 | – | active: 1120 nM
